In the supplement of paper PMC4604168 (melanoma cell lines):
The other results are listed elsewhere or left out. Many values rest on one well or one pass, so single values are uncertain.

Legend:
Test in all cases: cell count relative to DMSO control; melanoma cells; higher = more viable cells
Details in all cases: library dose: standard library concentration; 72 h
G361 = tested on: G361
IPC-298 = tested on: IPC-298
IST-MEL1 = tested on: IST-MEL1
LB2518-MEL = tested on: LB2518-MEL
LOXIMVI = tested on: LOXIMVI
MEL-HO = tested on: MEL-HO
MZ2-MEL = tested on: MZ2-MEL
MeWo = tested on: MeWo
RPMI7951 = tested on: RPMI7951
RVH-421 = tested on: RVH-421
SkMel28 = tested on: SkMel28
SkMel2 = tested on: SkMel2
SkMel30 = tested on: SkMel30
SkMel5 = tested on: SkMel5
UACC257 = tested on: UACC257
UACC62 = tested on: UACC62
WM115 = tested on: WM115
WM1716 = tested on: WM1716
WM1745 = tested on: WM1745
WM3526 = tested on: WM3526
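Also: cells treated in 1,536-well plates, then fixed and DAPI-stained, with nuclei counted from automated high-throughput microscope images.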

| Compound | cell count (G361) | cell count (IPC-298) | cell count (IST-MEL1) | cell count (LB2518-MEL) | cell count (LOXIMVI) | cell count (MEL-HO) | cell count (MZ2-MEL) | cell count (MeWo) | cell count (RPMI7951) | cell count (RVH-421) | cell count (SkMel28) | cell count (SkMel2) | cell count (SkMel30) | cell count (SkMel5) | cell count (UACC257) | cell count (UACC62) | cell count (WM115) | cell count (WM1716) | cell count (WM1745) | cell count (WM3526) |
| --- | --- | --- | --- | --- | --- | --- | --- | --- | --- | --- | --- | --- | --- | --- | --- | --- | --- | --- | --- | --- |
| Cc1cc(N2CCOCC2)cc2[nH]c(-c3c(NC[C@@H](O)c4cccc(Cl)c4)cc[nH]c3=O)nc12 + COc1ccc(-c2ccc3c(N4CCOCC4)nc(N4C[C@@H](C)O[C@@H](C)C4)nc3n2)cc1CO [KU0063794] (first compound 1 µM, partner dose 0.1 µM) | 47.8% | 70.1% | 100% | 57.1% | 73.6% | 89% | 67% | 56.1% | 81% | 83.7% | 70% | 68.4% | 70.5% | 57.8% | 98.2% | 106% | 85.7% | 94.1% | 52.5% | 56.1% |
| O=C(Nc1ccccc1)c1cc([N+](=O)[O-])ccc1Cl + O=C1NC(=O)/C(=C/c2ccc(-c3ccc(F)cc3O)o2)S1 [AS252424] (first compound 10 µM, partner dose 5 µM) | 87.7% | 88% | 108% | 100% | 53% | 75.2% | 85.7% | 92.2% | 81.9% | 72.2% | 56.1% | 0.909% | 74.4% | 72% | 94.5% | 72.3% | 89.3% | 92.5% | 60.3% | 75% |
| O=C(O)c1ccc2c(c1)nc(Nc1cccc(Cl)c1)c1ccncc12 + Clc1ccc(Nc2nnc(Cc3ccncc3)c3ccccc23)cc1 [vatalanib] (first compound 2 µM, partner dose 10 µM) | 52.3% | 64.2% | 73.9% | 122% | 49.7% | 35.2% | 82.4% | 36.3% | 73.8% | 99.2% | 89.4% | 112% | 111% | 74.6% | 74.3% | 91.2% | 108% | 96.5% | 77.4% | 86.2% |
| O=C(Nc1ccccc1)c1cc([N+](=O)[O-])ccc1Cl + O=c1cc(-c2cccc3c2Sc2ccccc2S3)oc(N2CCOCC2)c1 [KU55933] (first compound 10 µM, partner dose 5 µM) | 66.2% | 90.6% | 95.7% | 75.9% | 107% | 74.8% | 60.9% | 70.7% | 59.5% | 58.6% | 64.8% | 88.9% | 117% | 80.8% | 76.9% | 82.3% | 79.5% | 6.57% | 73.4% | 77.5% |
| Cn1nnc2c(C(N)=O)ncn2c1=O [temozolomide] + CCCCCCCCCCCC1=C(O)C(=O)C=C(O)C1=O [Embelin] (first compound 10 µM, partner dose 6 µM) | 68.9% | 49.4% | 68.2% | 87.3% | 89% | 76.8% | 72.8% | 117% | 89.9% | 79.3% | 37.4% | 91.8% | 73.9% | 74.7% | 102% | 69.1% | 85.1% | 56% | 71.2% | 82.5% |
| O=C(O)[C@@H]1[O][Sb](=[O])([O][Sb]2(=[O])[O][C@H]([C@H](O)CO)[C@H](O)[C@H](C(=O)O)[O]2)[O][C@H]([C@H](O)CO)[C@@H]1O (stereo not given in full) [stibogluconate] + C[C@]1(c2nc3c(C(N)=O)cccc3[nH]2)CCCN1 [Veliparib] (first compound 10 µM, partner dose 7 µM) | 123% | 98.6% | 98.8% | 82.5% | 58.5% | 95.1% | 102% | 98.1% | 78.9% | 86.4% | 92.5% | 112% | 112% | 70.4% | 88.5% | 69% | 91.3% | 82.2% | 87.3% | 104% |
| O=C(O)c1ccc2c(c1)nc(Nc1cccc(Cl)c1)c1ccncc12 + CN(NC(=O)CC(=O)NN(C)C(=S)c1ccccc1)C(=S)c1ccccc1 [STA4783] (first compound 2 µM, partner dose 0.03 µM) | 44.1% | 78.6% | 26.6% | 20.2% | 42.9% | 65.3% | 90.7% | 15.6% | 104% | 37.1% | 40.4% | 72% | 90.3% | 95.5% | 82.9% | 49.1% | 30.7% | 90.7% | 38.9% | 103% |
| O=C(O)[C@@H]1[O][Sb](=[O])([O][Sb]2(=[O])[O][C@H]([C@H](O)CO)[C@H](O)[C@H](C(=O)O)[O]2)[O][C@H]([C@H](O)CO)[C@@H]1O (stereo not given in full) [stibogluconate] + O=C(CCCCCCC(=O)Nc1ccccc1)NO [vorinostat] (first compound 10 µM, partner dose 0.4 µM) | 64.6% | 79% | 86.8% | 79.5% | 81.9% | 77.4% | 94.1% | 80% | 81% | 83% | 36.7% | 58.5% | 77.8% | 68.5% | 62.9% | 62.4% | 62.2% | 77% | 94.1% | 67.9% |
| O=C(Nc1cc(C(F)(F)F)cc(C(F)(F)F)c1)c1cc(Cl)ccc1O + CN(c1ncccc1CNc1nc(Nc2ccc3c(c2)CC(=O)N3)ncc1C(F)(F)F)S(C)(=O)=O [PF562271] (first compound 0.08 µM, partner dose 0.4 µM) | 76.1% | 88.3% | 88.9% | 75.5% | 107% | 79% | 89.6% | 80% | 67.7% | 68.7% | 92.7% | 79.8% | 91.4% | 78.9% | 80.8% | 64.7% | 100% | 82.7% | 70.3% | 96.8% |
| O=C(O)c1ccc2c(c1)nc(Nc1cccc(Cl)c1)c1ccncc12 + Cc1ccc(NC(=O)c2cccc(N(C)C)c2)cc1NC(=O)c1ccc(O)cc1 [ZM336372] (first compound 2 µM, partner dose 10 µM) | 52.2% | 77.7% | 68.8% | 87.6% | 46.3% | 56.4% | 73.8% | 82.9% | 42.7% | 66.3% | 71.2% | 51.7% | 86.5% | 72.5% | 77.2% | 78.3% | 75.3% | 90.3% | 52.4% | 72% |
| O=C(O)[C@@H]1[O][Sb](=[O])([O][Sb]2(=[O])[O][C@H]([C@H](O)CO)[C@H](O)[C@H](C(=O)O)[O]2)[O][C@H]([C@H](O)CO)[C@@H]1O (stereo not given in full) [stibogluconate] + OCc1c[nH]c2ccccc12 [Indole-3-carbinol] (first compound 10 µM, partner dose 4 µM) | 101% | 92.1% | 83.6% | 98.2% | 62.9% | 88.5% | 101% | 97% | 118% | 72.2% | 81.4% | 98% | 80.3% | 76.3% | 99.1% | 79.6% | 76.1% | 74.7% | 95.9% | 86.2% |
| O=C(O)[C@@H]1[O][Sb](=[O])([O][Sb]2(=[O])[O][C@H]([C@H](O)CO)[C@H](O)[C@H](C(=O)O)[O]2)[O][C@H]([C@H](O)CO)[C@@H]1O (stereo not given in full) [stibogluconate] + C=CCNC1=C2C[C@@H](C)C[C@H](OC)[C@H](O)[C@@H](C)/C=C(\C)[C@H](OC(N)=O)[C@@H](OC)/C=C\C=C(/C)C(=O)NC(=CC1=O)C2=O [Tanespimycin] (first compound 10 µM, partner dose 0.01 µM) | 85.5% | 86.1% | 103% | 91.7% | 136% | 113% | 137% | 77.2% | 32.4% | 92.2% | 121% | 103% | 151% | 60.9% | 115% | 53.8% | 26.4% | 88% | 55.7% | 73.6% |
| Cn1nnc2c(C(N)=O)ncn2c1=O [temozolomide] + COc1ccc(COc2ccc(Cc3cnc(N)nc3N)cc2OC)cc1 [GW2580] (first compound 10 µM, partner dose 5 µM) | 77.8% | 72.3% | 88.1% | 95.9% | 76.5% | 86.9% | 73% | 91.8% | 77.7% | 88.2% | 29.6% | 111% | 44.2% | 69.9% | 81.8% | 76.3% | 95.1% | 56.4% | 90.3% | 84.1% |
| O=C(Nc1cc(C(F)(F)F)cc(C(F)(F)F)c1)c1cc(Cl)ccc1O + CO[C@H]1C[C@@H]2CC[C@@H](C)[C@@](O)(O2)C(=O)C(=O)N2CCCC[C@H]2C(=O)O[C@H]([C@H](C)C[C@@H]2CC[C@@H](OCCO)[C@H](OC)C2)CC(=O)[C@H](C)/C=C(\C)[C@@H](O)[C@@H](OC)C(=O)[C@H](C)C[C@H](C)/C=C/C=C/C=C/1C [everolimus] (first compound 0.08 µM, partner dose 0.1 µM) | 68.9% | 76.8% | 73.3% | 75.3% | 98% | 78% | 85.7% | 70.5% | 69.6% | 74.2% | 56.6% | 65.2% | 76.5% | 56.3% | 93.6% | 73.6% | 64.9% | 69.6% | 81.1% | 60.9% |
| O=C(Nc1ccccc1)c1cc([N+](=O)[O-])ccc1Cl + N#Cc1c(O)c2c(-c3ccc(-c4ccccc4O)cc3)csc2[nH]c1=O [A769662] (first compound 10 µM, partner dose 10 µM) | 70.8% | 99.1% | 103% | 91.8% | 83.9% | 94.3% | 98.9% | 81.4% | 90% | 101% | 72.1% | 103% | 111% | 120% | 84.8% | 92.9% | 76.8% | 99.7% | 72.2% | 91.3% |
